Measured values from article PMC12820563, “FoxP3 forms a head-to-head dimer in vivo and stabilizes its multimerization on adjacent microsatellites”.
Some of the results follow.

The sequences below were run against T1, MBP-FoxP1dN (Mus musculus, UniProt P58462 326-579) (assay: PD-seq (MBP pull-down with sequencing); 20 mM Tris-HCl pH 7.5, 100 mM NaCl, 1.5 mM MgCl2, 0.4 uM protein, 0.1 uM dsDNA library, 30 min, room temperature, amylose pull-down; high values mean tight binding). Settings: protein: recombinant; tags: His6-MBP; chain copies: 2; dsDNA, one strand shown.
T1 sequence: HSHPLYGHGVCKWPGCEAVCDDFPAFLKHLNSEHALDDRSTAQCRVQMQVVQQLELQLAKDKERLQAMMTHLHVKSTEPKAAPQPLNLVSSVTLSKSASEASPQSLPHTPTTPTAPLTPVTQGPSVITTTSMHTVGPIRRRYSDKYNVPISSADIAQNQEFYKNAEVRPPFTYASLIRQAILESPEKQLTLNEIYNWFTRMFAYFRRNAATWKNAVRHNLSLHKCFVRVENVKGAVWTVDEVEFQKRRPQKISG
Outline: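 E. coli-expressed mouse FoxP3 or FoxP1 fragment, N-terminus removed and tagged with His6-MBP, was used at 0.4 µM against 0.1 µM of a Klenow-filled degenerate double-stranded DNA library. After 30 min at room temperature in Tris pH 7.5 buffer with NaCl and MgCl2, complexes were pulled down on amylose resin and washed three times. Binding is pull-down over input reads-per-million enrichment from pooled replicates of the proteinase K-released, PCR-barcoded, Illumina-sequenced DNA.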

Sequence | binding signal
GATGATTGTTCTCCCAGCTGATGAATTCTAGACGTCGAGTAAACAAATTTTCCTAATCTTTCTGTTCAAGCGCCATCTAC | 0.874 RPM ratio (pull-down/input)
GATGATTGTTCTCCCAGCTGATGAATTCGCCTTATCGAGTAAACAAATTTTCCTAATCTTTCTGTTCAAGCGCCATCTAC | 0.88 RPM ratio (pull-down/input)
GATGATTGTTCTCCCAGCTGATGAATTTCGTCGGTCGAGTAAACAAATTTTCCTAATCTTTCTGTTCAAGCGCCATCTAC | 0.849 RPM ratio (pull-down/input)
GATGATTGTTCTCCCAGCTGATGAATTCCATCTTTCGAGTAAACAAATTTTCCTAATCTTTCTGTTCAAGCGCCATCTAC | 0.908 RPM ratio (pull-down/input)
GATGATTGTTCTCCCAGCTGATGAATTTTCAGATTCGAGTAAACAAATTTTCCTAATCTTTCTGTTCAAGCGCCATCTAC | 0.839 RPM ratio (pull-down/input)
GATGATTGTTCTCCCAGCTGATGAATTTCTACTCTCGAGTAAACAAATTTTCCTAATCTTTCTGTTCAAGCGCCATCTAC | 0.863 RPM ratio (pull-down/input)
GATGATTGTTCTCCCAGCTGATGAATTGGTAACATCGAGTAAACAAATTTTCCTAATCTTTCTGTTCAAGCGCCATCTAC | 1.2 RPM ratio (pull-down/input)
GATGATTGTTCTCCCAGCTGATGAATTTTTCCACTCGAGTAAACAAATTTTCCTAATCTTTCTGTTCAAGCGCCATCTAC | 0.905 RPM ratio (pull-down/input)
GATGATTGTTCTCCCAGCTGATGAATTTCTTGAATCGAGTAAACAAATTTTCCTAATCTTTCTGTTCAAGCGCCATCTAC | 0.925 RPM ratio (pull-down/input)
GATGATTGTTCTCCCAGCTGATGAATTGGGCCATTCGAGTAAACAAATTTTCCTAATCTTTCTGTTCAAGCGCCATCTAC | 0.864 RPM ratio (pull-down/input)
GATGATTGTTCTCCCAGCTGATGAATTCCACGGATCGAGTAAACAAATTTTCCTAATCTTTCTGTTCAAGCGCCATCTAC | 0.756 RPM ratio (pull-down/input)
GATGATTGTTCTCCCAGCTGATGAATTTGGTTCATCGAGTAAACAAATTTTCCTAATCTTTCTGTTCAAGCGCCATCTAC | 0.956 RPM ratio (pull-down/input)
GATGATTGTTCTCCCAGCTGATGAATTGTAGGAATCGAGTAAACAAATTTTCCTAATCTTTCTGTTCAAGCGCCATCTAC | 1.07 RPM ratio (pull-down/input)
GATGATTGTTCTCCCAGCTGATGAATTTTACGCCTCGAGTAAACAAATTTTCCTAATCTTTCTGTTCAAGCGCCATCTAC | 0.911 RPM ratio (pull-down/input)
GATGATTGTTCTCCCAGCTGATGAATTGTACATCTCGAGTAAACAAATTTTCCTAATCTTTCTGTTCAAGCGCCATCTAC | 1.05 RPM ratio (pull-down/input)
GATGATTGTTCTCCCAGCTGATGAATTTATAGCCTCGAGTAAACAAATTTTCCTAATCTTTCTGTTCAAGCGCCATCTAC | 0.978 RPM ratio (pull-down/input)
GATGATTGTTCTCCCAGCTGATGAATTGTGTCGATCGAGTAAACAAATTTTCCTAATCTTTCTGTTCAAGCGCCATCTAC | 1.1 RPM ratio (pull-down/input)
GATGATTGTTCTCCCAGCTGATGAATTCCTCCCTTCGAGTAAACAAATTTTCCTAATCTTTCTGTTCAAGCGCCATCTAC | 0.782 RPM ratio (pull-down/input)
GATGATTGTTCTCCCAGCTGATGAATTGTAGGATTCGAGTAAACAAATTTTCCTAATCTTTCTGTTCAAGCGCCATCTAC | 1.02 RPM ratio (pull-down/input)
GATGATTGTTCTCCCAGCTGATGAATTGCTTCCGTCGAGTAAACAAATTTTCCTAATCTTTCTGTTCAAGCGCCATCTAC | 1.04 RPM ratio (pull-down/input)
GATGATTGTTCTCCCAGCTGATGAATTGGCTGCTTCGAGTAAACAAATTTTCCTAATCTTTCTGTTCAAGCGCCATCTAC | 0.8 RPM ratio (pull-down/input)

Sequence | binding signal
GATGATTGTTCTCCCAGCTGATGAATTTGTGTTATCGAGTAAACAAATTTTCCTAATCTTTCTGTTCAAGCGCCATCTAC | 2.08 RPM ratio (pull-down/input)
GATGATTGTTCTCCCAGCTGATGAATTATGGTGGTCGAGTAAACAAATTTTCCTAATCTTTCTGTTCAAGCGCCATCTAC | 0.999 RPM ratio (pull-down/input)
GATGATTGTTCTCCCAGCTGATGAATTCTCACATTCGAGTAAACAAATTTTCCTAATCTTTCTGTTCAAGCGCCATCTAC | 0.935 RPM ratio (pull-down/input)
GATGATTGTTCTCCCAGCTGATGAATTCGTGGCATCGAGTAAACAAATTTTCCTAATCTTTCTGTTCAAGCGCCATCTAC | 1.05 RPM ratio (pull-down/input)
GATGATTGTTCTCCCAGCTGATGAATTTACTATCTCGAGTAAACAAATTTTCCTAATCTTTCTGTTCAAGCGCCATCTAC | 1.29 RPM ratio (pull-down/input)
GATGATTGTTCTCCCAGCTGATGAATTACTAGGATCGAGTAAACAAATTTTCCTAATCTTTCTGTTCAAGCGCCATCTAC | 1.09 RPM ratio (pull-down/input)
GATGATTGTTCTCCCAGCTGATGAATTTCCCGCGTCGAGTAAACAAATTTTCCTAATCTTTCTGTTCAAGCGCCATCTAC | 0.903 RPM ratio (pull-down/input)
GATGATTGTTCTCCCAGCTGATGAATTGATCCATTCGAGTAAACAAATTTTCCTAATCTTTCTGTTCAAGCGCCATCTAC | 0.998 RPM ratio (pull-down/input)
GATGATTGTTCTCCCAGCTGATGAATTAAGGCTCTCGAGTAAACAAATTTTCCTAATCTTTCTGTTCAAGCGCCATCTAC | 0.897 RPM ratio (pull-down/input)
GATGATTGTTCTCCCAGCTGATGAATTTATCGATTCGAGTAAACAAATTTTCCTAATCTTTCTGTTCAAGCGCCATCTAC | 1.16 RPM ratio (pull-down/input)
GATGATTGTTCTCCCAGCTGATGAATTCCTTAGCTCGAGTAAACAAATTTTCCTAATCTTTCTGTTCAAGCGCCATCTAC | 0.772 RPM ratio (pull-down/input)
GATGATTGTTCTCCCAGCTGATGAATTCGGTATGTCGAGTAAACAAATTTTCCTAATCTTTCTGTTCAAGCGCCATCTAC | 0.927 RPM ratio (pull-down/input)
GATGATTGTTCTCCCAGCTGATGAATTACCTGATTCGAGTAAACAAATTTTCCTAATCTTTCTGTTCAAGCGCCATCTAC | 1.04 RPM ratio (pull-down/input)
GATGATTGTTCTCCCAGCTGATGAATTAGATCTCTCGAGTAAACAAATTTTCCTAATCTTTCTGTTCAAGCGCCATCTAC | 0.813 RPM ratio (pull-down/input)
GATGATTGTTCTCCCAGCTGATGAATTAACGGCTTCGAGTAAACAAATTTTCCTAATCTTTCTGTTCAAGCGCCATCTAC | 0.892 RPM ratio (pull-down/input)
GATGATTGTTCTCCCAGCTGATGAATTCTACTCTTCGAGTAAACAAATTTTCCTAATCTTTCTGTTCAAGCGCCATCTAC | 0.918 RPM ratio (pull-down/input)
GATGATTGTTCTCCCAGCTGATGAATTCTACTTCTCGAGTAAACAAATTTTCCTAATCTTTCTGTTCAAGCGCCATCTAC | 0.814 RPM ratio (pull-down/input)
GATGATTGTTCTCCCAGCTGATGAATTCATAGACTCGAGTAAACAAATTTTCCTAATCTTTCTGTTCAAGCGCCATCTAC | 0.762 RPM ratio (pull-down/input)
GATGATTGTTCTCCCAGCTGATGAATTTCAGCACTCGAGTAAACAAATTTTCCTAATCTTTCTGTTCAAGCGCCATCTAC | 0.8 RPM ratio (pull-down/input)
GATGATTGTTCTCCCAGCTGATGAATTAGCTTTTTCGAGTAAACAAATTTTCCTAATCTTTCTGTTCAAGCGCCATCTAC | 0.956 RPM ratio (pull-down/input)
GATGATTGTTCTCCCAGCTGATGAATTGCTATGTTCGAGTAAACAAATTTTCCTAATCTTTCTGTTCAAGCGCCATCTAC | 1.24 RPM ratio (pull-down/input)

Sequence | binding signal
GATGATTGTTCTCCCAGCTGATGAATTTTCTTTATCGAGTAAACAAATTTTCCTAATCTTTCTGTTCAAGCGCCATCTAC | 1.2 RPM ratio (pull-down/input)
GATGATTGTTCTCCCAGCTGATGAATTTCTCCTTTCGAGTAAACAAATTTTCCTAATCTTTCTGTTCAAGCGCCATCTAC | 0.95 RPM ratio (pull-down/input)
GATGATTGTTCTCCCAGCTGATGAATTGTGTTTTTCGAGTAAACAAATTTTCCTAATCTTTCTGTTCAAGCGCCATCTAC | 2.33 RPM ratio (pull-down/input)
GATGATTGTTCTCCCAGCTGATGAATTAAAAGGCTCGAGTAAACAAATTTTCCTAATCTTTCTGTTCAAGCGCCATCTAC | 0.898 RPM ratio (pull-down/input)
GATGATTGTTCTCCCAGCTGATGAATTATTGTGGTCGAGTAAACAAATTTTCCTAATCTTTCTGTTCAAGCGCCATCTAC | 1.51 RPM ratio (pull-down/input)
GATGATTGTTCTCCCAGCTGATGAATTTACAGCTTCGAGTAAACAAATTTTCCTAATCTTTCTGTTCAAGCGCCATCTAC | 1.17 RPM ratio (pull-down/input)
GATGATTGTTCTCCCAGCTGATGAATTCCTATAGTCGAGTAAACAAATTTTCCTAATCTTTCTGTTCAAGCGCCATCTAC | 0.82 RPM ratio (pull-down/input)
GATGATTGTTCTCCCAGCTGATGAATTTCAGATCTCGAGTAAACAAATTTTCCTAATCTTTCTGTTCAAGCGCCATCTAC | 0.814 RPM ratio (pull-down/input)
GATGATTGTTCTCCCAGCTGATGAATTGGTTTTGTCGAGTAAACAAATTTTCCTAATCTTTCTGTTCAAGCGCCATCTAC | 1.12 RPM ratio (pull-down/input)
GATGATTGTTCTCCCAGCTGATGAATTTGGGCTCTCGAGTAAACAAATTTTCCTAATCTTTCTGTTCAAGCGCCATCTAC | 0.821 RPM ratio (pull-down/input)
GATGATTGTTCTCCCAGCTGATGAATTTTCAAGGTCGAGTAAACAAATTTTCCTAATCTTTCTGTTCAAGCGCCATCTAC | 0.787 RPM ratio (pull-down/input)
GATGATTGTTCTCCCAGCTGATGAATTACTTGACTCGAGTAAACAAATTTTCCTAATCTTTCTGTTCAAGCGCCATCTAC | 0.999 RPM ratio (pull-down/input)
GATGATTGTTCTCCCAGCTGATGAATTGCCAGTCTCGAGTAAACAAATTTTCCTAATCTTTCTGTTCAAGCGCCATCTAC | 0.829 RPM ratio (pull-down/input)
GATGATTGTTCTCCCAGCTGATGAATTGCTCGAATCGAGTAAACAAATTTTCCTAATCTTTCTGTTCAAGCGCCATCTAC | 1.02 RPM ratio (pull-down/input)
GATGATTGTTCTCCCAGCTGATGAATTAGCTAATTCGAGTAAACAAATTTTCCTAATCTTTCTGTTCAAGCGCCATCTAC | 0.933 RPM ratio (pull-down/input)
GATGATTGTTCTCCCAGCTGATGAATTCTCAAAATCGAGTAAACAAATTTTCCTAATCTTTCTGTTCAAGCGCCATCTAC | 1.05 RPM ratio (pull-down/input)
GATGATTGTTCTCCCAGCTGATGAATTTAAGAACTCGAGTAAACAAATTTTCCTAATCTTTCTGTTCAAGCGCCATCTAC | 0.845 RPM ratio (pull-down/input)
GATGATTGTTCTCCCAGCTGATGAATTGTGCCATTCGAGTAAACAAATTTTCCTAATCTTTCTGTTCAAGCGCCATCTAC | 1.11 RPM ratio (pull-down/input)
GATGATTGTTCTCCCAGCTGATGAATTAGCGTTGTCGAGTAAACAAATTTTCCTAATCTTTCTGTTCAAGCGCCATCTAC | 1.06 RPM ratio (pull-down/input)
GATGATTGTTCTCCCAGCTGATGAATTTAGACCTTCGAGTAAACAAATTTTCCTAATCTTTCTGTTCAAGCGCCATCTAC | 0.997 RPM ratio (pull-down/input)
GATGATTGTTCTCCCAGCTGATGAATTTGATGAATCGAGTAAACAAATTTTCCTAATCTTTCTGTTCAAGCGCCATCTAC | 0.889 RPM ratio (pull-down/input)
